According to PubChem BioAssay (NCI):
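96-well plates; 48 h exposure; 5 concentrations. Endpoints by linear interpolation between flanking doses. Not reached: highest tested concentration assigned. GI50: concentration for 50% inhibition of growth. TGI: concentration producing complete growth inhibition.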

What follows are compounds tested on NCI-H322M lung (assay: NCI tumour cell line growth inhibition, 48 h).

Row | Structure (SMILES) | TGI [µM] | GI50 [µM]
1 | CN(C)C1=Nc2ccccc2C(=S)N2CSCC12 (configuration not stated) | > 100 | –
2 | CCOC(=O)C1N(S(=O)(=O)c2ccc(C)cc2)CCC12C(c1ccc(OC)cc1)NC1CCCCC12 (configuration not stated) | > 100 | –
3 | Cc1ccc(C2CC(c3ccco3)=NN2c2ccccc2)o1 (configuration not stated) | > 100 | –
4 | COc1cc2cn3c4ccc(O)cc4[nH]c(=O)c3c2cc1OC | 1.97 | 0.0597
5 | CC(=O)Oc1ccc(Nc2c3ccccc3nc3ccccc23)cc1 | 7.1 | 2.04
6 | CCOC(=O)N1CCN(C(=O)c2ccc(C(F)(F)F)nc2Nc2cc(Cl)ccc2C)CC1 | > 100 | 28.1
7 | CC(=O)O[C@@H]1C[C@]2(C(C)C)O[C@@]1(C)[C@@H]1CCC(C)=C1[C@@H]2OC(=O)/C=C/c1ccccc1 | > 100 | > 100
8 | COC(=O)[C@@H](NC(=O)[C@@H](OC)[C@@H]1Cc2cc3cc(OC4CC(OC5CC(O)C(O)C(C)O5)C(O)C(C)O4)c(C)c(O)c3c(O)c2C(=O)[C@H]1OC1CC(OC2CC(OC3CC(C)(O)C(O)C(C)O3)C(O)C(C)O2)C(O)C(C)O1)C(C)C (some centres not stated) | > 32.5 | 0.146
9 | COc1ccc(-c2cc(-c3cccn3C)c(C#N)c(N)n2)cc1OC | > 100 | > 100
10 | N#CSc1nc[nH]c1C(N)=O | > 100 | –
11 | O=C(O)c1cccc(OCCO)c1 | > 100 | –
12 | CCOC(=O)c1nc2c(Cl)c3ncccc3cc2[nH]c1=O | > 100 | –
13 | Nc1ccc(C(=O)NN2C(=O)C(Cl)C2c2ccccc2Cl)cc1 (configuration not stated) | 28.5 | –
14 | O=C(N/N=C\c1cc(Br)ccc1O)c1ccncc1 | > 100 | 5.46
15 | CN1CCc2c(Sc3ccc(C(=O)NO)cc3)c3ccccc3n2C1 | 8.89 | 2.5
16 | Cc1cccc2c1Oc1cc(Cl)ccc1C2NC(=O)CCN1CCOCC1 (configuration not stated) | > 100 | –
17 | COc1cc(/C=C2\C(=O)Nc3ccc(F)cc32)cc(OC)c1OC | > 100 | 92.3
18 | COc1ccc(-n2cc(-c3ccc(Cl)c(Cl)c3)nc2SCc2cccc(C#N)c2)cc1 | > 100 | > 100
19 | Nc1c(C(=O)N/N=C/c2ccc(-c3ccc(Cl)cc3)o2)cnn1-c1ccnc2c(C(F)(F)F)cccc12 | > 100 | > 100
20 | Cc1cccc(/C=N/NC(=S)NCCc2ccccn2)n1 | > 100 | –
21 | O=C(CSc1nnc(-c2ccccc2NC(=O)C(F)(F)F)c(=O)[nH]1)NC(=O)Nc1ccccc1 | > 100 | –
22 | CC(=O)c1csc2c1C(=O)c1scc(C(C)=O)c1C2=O | 2.83 | –
23 | COc1ccc2c(c1)CCc1c-2[nH]c2ccc(OC)cc12 | > 100 | –

Row | Structure (SMILES) | TGI [µM] | GI50 [µM]
24 | CN(C)Cc1c[nH]c2c1C(=O)c1c(c(O)c3ccccc3c1O)C2=O | 9.35 | 2.83
25 | C=CCNC1=C2C[C@@H](C)C[C@@H](OC)[C@@H](OC(=O)CCCN)[C@H](C)/C=C(\C)[C@@H](OC(N)=O)[C@H](OC)/C=C\C=C(/C)C(=O)NC(=CC1=O)C2=O | 26.4 | –
26 | CC1=NC(=Cc2ccc(O)cc2)C(=O)N1n1c(-c2ccccc2)nc2ccccc2c1=O | > 100 | –
27 | Cc1ccc2nc(-c3ccc(N)c(I)c3)sc2c1 | 27.4 | –
28 | CCC1c2[nH]c3ccccc3c2C[C@H]2C(=O)NC(COC(C)(C)C)C(=O)N12 (some centres not stated) | > 100 | –
29 | CCN(CC)CCOc1ccc(/C(=C(\C)c2ccc(F)c(OC)c2)c2ccc(Cl)cc2)cc1 | 4.76 | 2.46
30 | O=C1CSC(Cc2nc3ccccc3[nH]2)=N1 | 94.1 | –
31 | O=C(CC(c1ccccc1)N1CCCCC1)c1ccccc1 (configuration not stated) | 31.4 | –
32 | O=C(c1ccccc1)c1c(-c2ccccc2)[nH]n(-c2ccc([N+](=O)[O-])cc2)c(=O)c1=O | > 100 | –
33 | CC(=O)Oc1ccccc1C(=O)N=C1[Se]CCN1C(=O)c1ccccc1OC(C)=O | 3.07 | 0.585
34 | CCN1CCN(c2ccc(Nc3ccnc4ccc5nn(C)nc5c34)cc2)CC1 | 26.7 | –
35 | COc1cc(/C=C2\C[C@H]3[C@@H]4CC=C5C[C@@H](O)CC[C@]5(C)[C@H]4CC[C@]3(C)C2=O)cc(OC)c1OC | > 100 | –
36 | CC1(C)OCC2OC3(c4nc(C#N)c(N)o4)OC(C)(C)OC3C2O1 (configuration not stated) | > 100 | –
37 | O=C1/C(=C\c2cccn2Cc2ccccc2)c2ccccc2N1c1c(Cl)cccc1Cl | > 100 | 8.79
38 | O=C(C(=O)N1CCc2ccccc21)c1c[nH]c2ccccc12 | > 10 | –
39 | c1cc(-c2ncc(-c3ccc4c(c3)CCCO4)o2)ccn1 | > 100 | –
40 | Nc1nc(Nc2ccccc2)c2ncn(Cc3cc4c(cc3Br)OCO4)c2n1 | 38.8 | 0.141
41 | Cc1cccc2c1[C@]13OC(C)[C@]4(C)CC5OC(=O)[C@@]1(C)[C@@H]5[C@]34C(=O)O2 (some centres not stated) | > 100 | –
42 | O=C(CN1CCCCC1)N1CCc2c([nH]c3ccccc23)C1c1cccnc1 (configuration not stated) | > 100 | –
43 | CC(C)(C)N1CC2(CCCCC2)C1=O | > 100 | –
44 | OCC1OC(n2cnc3c2NC=NC[C@H]3O)C(O)C1O (some centres not stated) | > 450 | –
45 | COC(=O)C1OC(Oc2cc(O)c3c(=O)cc(-c4ccc(O)cc4)oc3c2)C(O)C(O)C1O (configuration not stated) | > 100 | –
46 | N#CC(/C(=N/NC(=O)C(=O)NN)C(=O)NC12CC3CC(CC(C3)C1)C2)c1ccccc1 (configuration not stated) | > 100 | –
